Data reported in PubChem BioAssay (NCI).
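Where inhibition never reached the appropriate level, the endpoint shown equals the highest concentration tested. Otherwise, values were interpolated linearly from a five-concentration, 48-hour dose response in 96-well plates. The concentration for 50% growth inhibition is given as GI50.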 Certain results were filed several times, with different values. The list is limited to them. An entry can have further records. For part of these data: Records of one sample usually come from different ranges of test concentrations, which the source does not state; a value can be the end of its range.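 TGI: total growth inhibition.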 For part of these data: The values listed for one entry are repeats in other runs, samples, wells, individuals or studies. A tag in brackets gives the origin of a value. Letters hold for one entry only. *1 amine or outer side, *2 acyl side, *3 side chain or, on linkers, in order; H or OH if unused. Where a SMILES comes first, the peptide text is derived from it. Bridges are numbered along the chain shown (N, C = ends). Roman numbers before positions name the chains, in order. [ ]: non-standard residue; d: D form. Actinocin(1to9) = Cc1c2oc3c(C)ccc(C(=O)[*:2])c3nc-2c(C(=O)[*:1])c(N)c1=O; NMeV = CN[CH](C(=O)O)C(C)C; Sar = CNCC(=O)O

What was measured:
Test in all cases: NCI-60 cell line screen, 48 h
HOP-62 NSCLC = tested on: HOP-62 NSCLC
CAKI-1 renal = tested on: CAKI-1 renal
SF-268 CNS = tested on: SF-268 CNS
NCI-H23 lung = tested on: NCI-H23 lung
SN12C renal = tested on: SN12C renal
NCI-H226 lung = tested on: NCI-H226 lung
OVCAR-8 ovarian = tested on: OVCAR-8 ovarian
DU-145 prostate = tested on: DU-145 prostate
SK-OV-3 ovarian = tested on: SK-OV-3 ovarian
A549 NSCLC = tested on: A549 NSCLC
U251 CNS = tested on: U251 CNS
MDA-MB-435 = tested on: MDA-MB-435
786-0 renal = tested on: 786-0 renal
UACC-62 melanoma = tested on: UACC-62 melanoma
ACHN renal = tested on: ACHN renal
SF-539 CNS = tested on: SF-539 CNS
A498 renal = tested on: A498 renal
MALME-3M melanoma = tested on: MALME-3M melanoma
PC-3 prostate = tested on: PC-3 prostate
OVCAR-3 ovarian = tested on: OVCAR-3 ovarian
MDA-MB-231 breast = tested on: MDA-MB-231 breast
HS 578T breast = tested on: HS 578T breast
TK-10 renal = tested on: TK-10 renal
NCI/ADR-RES ovarian = tested on: NCI/ADR-RES ovarian
SR leukemia = tested on: SR leukemia
MOLT-4 leukemia = tested on: MOLT-4 leukemia
K-562 leukemia = tested on: K-562 leukemia
T-47D breast = tested on: T-47D breast
UO-31 renal = tested on: UO-31 renal
NCI-H460 lung = tested on: NCI-H460 lung
HT29 colon = tested on: HT29 colon
SF-295 CNS = tested on: SF-295 CNS
EKVX NSCLC = tested on: EKVX NSCLC
OVCAR-4 ovarian = tested on: OVCAR-4 ovarian
OVCAR-5 ovarian = tested on: OVCAR-5 ovarian
HCC-2998 colon = tested on: HCC-2998 colon

Q: `C[C@H](CCCOS(C)(=O)=O)[C@H]1CC[C@H]2[C@@H]3CC[C@@H]4C[C@H](OS(C)(=O)=O)CC[C@]4(C)[C@H]3CC[C@]12C` was tested. Which TGI (HOP-62 NSCLC) did it give?
A: The TGI was 59.2 µM and 1.29 mM.

Q: What about the TGI (CAKI-1 renal) of the same compound?
A: The TGI was 39.9 µM and > 2.5 mM.

Q: And the TGI (SF-268 CNS)?
A: Its TGI is 93.8 µM and 1.8 mM.

Q: And the TGI (NCI-H23 lung)?
A: Its TGI is 31.9 µM and 647 µM.

Q: What about the TGI (SN12C renal) of the same compound?
A: Its TGI is 44.2 µM and > 2.5 mM.

Q: And the TGI (NCI-H226 lung)?
A: The TGI was 58.1 µM and > 2.5 mM.

Q: What about the TGI (OVCAR-8 ovarian) of the same compound?
A: The TGI was 28.1 µM and > 2.5 mM.

Q: And the TGI (DU-145 prostate)?
A: The TGI was 93.5 µM and > 2.5 mM.

Q: And the TGI (SK-OV-3 ovarian)?
A: Its TGI is 82.4 µM and > 2.5 mM.

Q: What about the TGI (A549 NSCLC) of the same compound?
A: The TGI was 39.5 µM and > 2.5 mM.

Q: What about the TGI (U251 CNS) of the same compound?
A: The TGI was 29.3 µM and 700 µM.

Q: And the TGI (MDA-MB-435)?
A: The TGI was 47.1 µM and > 2.5 mM.

Q: What about the TGI (786-0 renal) of the same compound?
A: Its TGI is 65.1 µM and > 2.5 mM.

Q: And the TGI (UACC-62 melanoma)?
A: Its TGI is 93.6 µM and > 2.5 mM.

Q: And the TGI (ACHN renal)?
A: The TGI was 32.8 µM and 859 µM.

Q: And the TGI (SF-539 CNS)?
A: The TGI was 58.6 µM and 2.46 mM.

Q: What about the TGI (A498 renal) of the same compound?
A: The TGI was 59.6 µM and > 2.5 mM.

Q: What about the TGI (MALME-3M melanoma) of the same compound?
A: Its TGI is 59.2 µM and > 2.5 mM.

Q: What about the TGI (PC-3 prostate) of the same compound?
A: Its TGI is 64.5 µM and > 2.5 mM.

Q: What about the TGI (OVCAR-3 ovarian) of the same compound?
A: The TGI was 46.2 µM and > 2.5 mM.

Q: And the TGI (MDA-MB-231 breast)?
A: The TGI was 36.5 µM and 1.38 mM.

Q: And the TGI (HS 578T breast)?
A: The TGI was 63.8 µM and 1.33 mM.

Q: What about the TGI (TK-10 renal) of the same compound?
A: The TGI was 36.7 µM and 1.62 mM.

Q: What about the TGI (NCI/ADR-RES ovarian) of the same compound?
A: The TGI was 65.1 µM and 867 µM.

Q: Which results are given for `OCC(O)C(O)C(C=NNc1ncnc2ccc(Br)cc12)=NNc1ncnc2ccc(Br)cc12` (stereo not given)?
A: TGI (CAKI-1 renal): 9.43 µM [sample A] and > 100 µM [sample B]; TGI (NCI-H226 lung): 8.75 µM [sample A] and > 100 µM [sample B]; TGI (SR leukemia): 6.01 µM [sample A] and > 100 µM [sample B]; TGI (MALME-3M melanoma): 6.77 µM [sample A] and 79.7 µM [sample B]

Q: Which results are given for `CCC(=O)OCN1C(=O)C=CC1=O`?
A: TGI (MOLT-4 leukemia): 5.8 µM [sample A] and > 100 µM [sample B]; TGI (K-562 leukemia): 9.88 µM [sample A] and > 100 µM [sample B]; TGI (T-47D breast): 2.98 µM [sample A, 1 test] and 46.9 µM [sample B, 1 test]

Q: `CCC(C)C1NC(=O)C(NC(=O)c2c3nc4c(C(=O)NC5C(=O)NC(C(C)C)C(=O)N6CCCC6C(=O)N(C)CC(=O)N(C)C(C(C)C)C(=O)OC5C)ccc(C)c4oc-3c(C)c(=O)c2N)C(C)OC(=O)C(C(C)C)N(C)C(=O)CN(C)C(=O)C2CCCN2C1=O` (stereo not given) (I: TIP[Sar][NMeV] / II: TVP[Sar][NMeV]; ester I:1-I:C, II:1-II:C; linker I:N-II:N via Actinocin(1to9); configuration not given here) was tested. Which TGI (HOP-62 NSCLC) did it give?
A: Its TGI is 360 nM and 15 µM.

Q: What about the TGI (UO-31 renal) of the same compound?
A: Its TGI is 445 nM and 40.7 nM.

Q: What about the TGI (NCI-H460 lung) of the same compound?
A: Its TGI is 104 nM and 15.7 µM.

Q: And the TGI (HT29 colon)?
A: The TGI was 172 nM and 1.79 µM.

Q: And the TGI (SF-295 CNS)?
A: Its TGI is 719 nM and 11.9 µM.

Q: What does the source list for `COc1ccc2c(c1)NC(=O)CN2c1nc(C)nc2ccccc12`?
A: GI50 (NCI-H226 lung): 3.03 nM and 31.1 nM; GI50 (EKVX NSCLC): 0.632 nM and 10.6 nM; GI50 (OVCAR-4 ovarian): 2.43 nM and 10.4 µM; TGI (A498 renal): 7.49 nM and > 100 µM; TGI (SF-295 CNS): 2.14 nM and > 100 µM

Q: `NC(=S)N=Nc1c(O)[nH]c2ccccc12` was tested. Which TGI (NCI-H23 lung) did it give?
A: Its TGI is 4.4 µM and 383 µM.

Q: And the TGI (OVCAR-5 ovarian)?
A: Its TGI is 7.23 µM and 544 µM.

Q: What about the TGI (NCI/ADR-RES ovarian) of the same compound?
A: The TGI was 3.72 µM and 414 µM.

Q: And the TGI (HCC-2998 colon)?
A: The TGI was 3.11 µM and 459 µM.
